In PubChem BioAssay (Tox21):
The inconclusive results got no clear call from the source; some entries with a clear call stand among them for comparison. For part of these data: A potency beside an inconclusive call is a rough fit, not a confirmed value. Calls of active or inactive are those of the source. Unless noted, the call rests on the fitted dose curve; in most records, active means well fitted curve in the direction sought with a large enough effect in the repeat runs; inconclusive means weak or mixed curves; inactive means no such curve, though single readings can be large; an effect the other way counts as inactive or inconclusive.

Assays:
[1] = qHTS assay for small molecule agonists of the p53 signaling pathway (AID 651631; calls by dose curve; further: on the % scale 0 is the no-effect control and ±100 the full control effect; nearly all actives have a fitted effect of over 15% in size); conditions: HCT-116 p53RE-bla reporter, beta-lactamase FRET ratio, 16 h; activation: at 73.3 µM (top of the series) unless noted
Outline: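 Read-out is beta-lactamase FRET fluorescence measured 2 h after substrate addition at room temperature, in HCT-116 cells with a p53 response element-driven reporter exposed to compounds for 16 h at 37 °C.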

[2] = qHTS assay to identify small molecule antagonists of the thyroid receptor (TR) signaling pathway (AID 743065); further: on the % scale 0 is the no-effect control and ±100 the full control effect; nearly all actives have a fitted effect of over 55% in size
Outline: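 Antagonism measured as loss of luciferase signal in GH3 cells stably carrying a TRE-luciferase reporter, co-treated with compound and T3 (1 nM final) for 23.5 h at 37 C. Viability was read in the same well by CellTiter-Fluor.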

[3] = target: Estrogen receptor (Homo sapiens) (UniProt P03372); assay: qHTS assay to identify small molecule antagonists of the estrogen receptor alpha (ER-alpha) signaling pathway (AID 743069; active means well fitted curve in the direction sought with a large enough effect in the signal ratio in the repeat runs, not every such curve was filed as active; inconclusive means weak or mixed curves, or effect the other way; inactive means no such curve, though single readings can be large or run the other way; the % refers to the signal ratio; further: on the % scale 0 is the no-effect control and ±100 the full control effect); conditions: HEK293 ER-alpha-UAS-bla, beta-lactamase ratio, antagonist mode; activity, negative = inhibition: at 69.4 µM (top of the series) unless noted
UniProt P03372, sequence (P03372 whole entry, looked up): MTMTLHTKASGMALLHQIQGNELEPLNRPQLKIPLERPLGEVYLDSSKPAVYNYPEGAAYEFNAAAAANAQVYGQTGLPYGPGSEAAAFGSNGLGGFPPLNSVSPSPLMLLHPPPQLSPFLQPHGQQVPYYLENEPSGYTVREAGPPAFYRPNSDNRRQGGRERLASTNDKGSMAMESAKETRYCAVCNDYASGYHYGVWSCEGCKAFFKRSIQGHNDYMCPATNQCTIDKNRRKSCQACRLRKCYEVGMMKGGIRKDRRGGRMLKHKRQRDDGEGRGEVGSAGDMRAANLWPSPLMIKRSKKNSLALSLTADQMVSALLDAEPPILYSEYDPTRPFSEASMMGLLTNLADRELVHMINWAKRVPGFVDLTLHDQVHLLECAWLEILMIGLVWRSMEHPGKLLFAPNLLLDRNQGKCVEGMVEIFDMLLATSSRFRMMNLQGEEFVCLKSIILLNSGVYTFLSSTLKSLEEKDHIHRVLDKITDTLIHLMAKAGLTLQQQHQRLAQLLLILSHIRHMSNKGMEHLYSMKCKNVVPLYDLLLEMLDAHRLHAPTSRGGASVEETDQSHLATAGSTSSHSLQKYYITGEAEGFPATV
Outline: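 Antagonist mode: compounds in DMSO were co-added with 17beta-estradiol to ER-alpha-bla HEK293 cells (2% charcoal-stripped serum) and left 18 h at 37C. Reporter inhibition was measured as FRET fluorescence after 2 h LiveBLAzer substrate at room temperature.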

[4] = qHTS assay to identify small molecule antagonists of the estrogen receptor alpha (ER-alpha) signaling pathway using the BG1 cell line - cell viability counter screen (AID 743081); conditions: BG1Luc4E2 viability, CellTiter-Fluor, 22 h; activity change, negative = cytotoxicity: at 70.3 µM (top of the series) unless noted;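 further: compound given together with 17beta-estradiol as the ER stimulus; potency means the concentration at half of the fitted maximal effect; nearly all actives have a fitted effect of over 45% in size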
[5] = qHTS assay to identify small molecule that activate the aryl hydrocarbon receptor (AhR) signaling pathway - cell viability counter screen (AID 743086);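 further: HepG2 liver cells carrying the AhR DRE luciferase reporter; on the % scale 0 is the no-effect control and ±100 the full control effect; nearly all actives have a fitted effect of over 45% in size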
Outline: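 Cytotoxicity counter screen: CellTiter-Fluor signal (30 min, 37 C) in 4000 HepG2 cells/well carrying the DRE-luciferase reporter, following 24 h compound exposure at 37 C.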

[6] = target: Peroxisome proliferator-activated receptor gamma (Homo sapiens) (UniProt P37231); assay: qHTS assay to identify small molecule agonists of the peroxisome proliferator-activated receptor gamma (PPARg) signaling pathway (AID 743094; active means well fitted activation curve with a large enough effect in the signal ratio in the repeat runs, not every such curve was filed as active; inconclusive means weak or mixed curves, or effect the other way; inactive means no such curve, though single readings can be large or run the other way; the % refers to the signal ratio; further: on the % scale 0 is the no-effect control and ±100 the full control effect); conditions: HEK293H PPARg-UAS-bla, beta-lactamase FRET ratio, 17 h; activation: at 57 µM (top of the series) unless noted
UniProt P37231, sequence (P37231 whole entry, looked up): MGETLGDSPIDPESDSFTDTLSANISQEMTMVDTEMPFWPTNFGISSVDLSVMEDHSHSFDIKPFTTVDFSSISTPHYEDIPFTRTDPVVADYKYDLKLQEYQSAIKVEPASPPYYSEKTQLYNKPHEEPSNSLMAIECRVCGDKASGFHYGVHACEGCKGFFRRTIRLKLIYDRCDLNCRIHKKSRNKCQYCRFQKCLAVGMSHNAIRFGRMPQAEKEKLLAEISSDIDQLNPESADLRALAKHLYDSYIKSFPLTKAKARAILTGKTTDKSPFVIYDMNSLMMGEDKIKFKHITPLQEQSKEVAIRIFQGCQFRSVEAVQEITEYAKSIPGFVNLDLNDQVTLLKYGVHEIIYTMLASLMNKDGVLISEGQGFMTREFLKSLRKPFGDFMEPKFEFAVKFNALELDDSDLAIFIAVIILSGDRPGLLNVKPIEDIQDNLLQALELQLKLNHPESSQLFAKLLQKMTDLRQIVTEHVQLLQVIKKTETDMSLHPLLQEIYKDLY
Outline: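 Reporter activation was scored by fluorescence of cleaved LiveBLAzer B/G substrate (1 h, room temperature) in PPARg-bla HEK293H cells previously treated 17 h at 37C with DMSO-dissolved compounds.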

[7] = target: Peroxisome proliferator-activated receptor gamma (Homo sapiens) (UniProt P37231); assay: qHTS assay to identify small molecule antagonists of the peroxisome proliferator-activated receptor gamma (PPARg) signaling pathway (AID 743191; calls by dose curve; further: on the % scale 0 is the no-effect control and ±100 the full control effect; nearly all actives have a fitted effect of over 30% in size); conditions: HEK293H PPARg-UAS-bla, beta-lactamase ratio, antagonist, 17 h; ratio activity, negative = inhibition: at 62.6 µM (top of the series) unless noted
Outline: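 Beta-lactamase reporter under UAS control in HEK293H PPARg-bla cells; compound treatment 17 h at 37C. Read-out: fluorescence intensity after 1 h room-temperature incubation with LiveBLAzer B/G FRET substrate.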

[8] = qHTS assay for small molecule activators of the heat shock response signaling pathway (AID 743210; active means well fitted activation curve with a large enough effect in the signal ratio in the repeat runs, with a control signal flat, not every such curve was filed as active; inconclusive means weak or mixed curves; the % refers to the signal ratio; further: on the % scale 0 is the no-effect control and ±100 the full control effect); conditions: HeLa HSE-bla reporter, beta-lactamase ratio, 5 h; activation: at 62.6 µM (top of the series) unless noted
Outline: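 Compound exposure lasted 5 h at 37 C in HeLa cells carrying a heat-shock-element-driven beta-lactamase reporter. Read-out: fluorescence intensity after 2.5 h room-temperature loading with LiveBLAzer B/G FRET substrate.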

[9] = target: Vitamin D3 receptor (Homo sapiens) (UniProt P11473); assay: qHTS assay to identify small molecule agonists of the vitamin D receptor (VDR) signaling pathway (AID 743222; calls by dose curve; further: on the % scale 0 is the no-effect control and ±100 the full control effect); conditions: HEK293T VDR-UAS-bla, beta-lactamase FRET ratio, 16 h; activation: at 63.5 µM (top of the series) unless noted
UniProt P11473, sequence (P11473 whole entry, looked up): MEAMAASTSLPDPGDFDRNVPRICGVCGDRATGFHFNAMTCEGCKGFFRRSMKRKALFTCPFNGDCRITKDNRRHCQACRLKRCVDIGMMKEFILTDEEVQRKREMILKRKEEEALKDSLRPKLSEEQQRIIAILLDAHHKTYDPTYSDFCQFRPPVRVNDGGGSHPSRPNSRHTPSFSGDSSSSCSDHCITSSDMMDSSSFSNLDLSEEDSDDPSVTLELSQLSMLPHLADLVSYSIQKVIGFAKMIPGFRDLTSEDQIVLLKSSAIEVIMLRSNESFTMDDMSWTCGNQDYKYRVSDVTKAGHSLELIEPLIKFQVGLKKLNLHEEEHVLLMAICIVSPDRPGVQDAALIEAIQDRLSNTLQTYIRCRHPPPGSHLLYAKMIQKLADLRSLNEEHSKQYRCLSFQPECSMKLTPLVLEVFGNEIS
Outline: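 Fluorescence from cleaved LiveBLAzer B/G FRET substrate served as readout. VDR-bla cells had been treated 16 h at 37C with test compounds in DMSO, following a 4 h settling period, and substrate was loaded for 2 h at RT.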

[10] = qHTS assay to identify small molecule antagonists of the estrogen related receptor (ERR) signaling pathway from Tox21 library - cell viability counter screen (AID 1224834); further: potency means the concentration at half of the fitted maximal effect; nearly all actives have a fitted effect of over 30% in size
Outline: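 Compounds in DMSO were pinned onto ERR cells that had been incubated for 6 h, and the plates were held at 37 C for 17.5 h. CellTiter-Fluor reagent was then added and fluorescence was measured after 30 min.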

[11] = target: Luciferin 4-monooxygenase (Photinus pyralis) (UniProt P08659); assay: qHTS assay to identify small molecule inhibitors of firefly luciferase (AID 1224835); further: potency means the concentration at half of the fitted maximal effect; nearly all actives have a fitted effect of over 25% in size
UniProt P08659, sequence (P08659 whole entry, looked up): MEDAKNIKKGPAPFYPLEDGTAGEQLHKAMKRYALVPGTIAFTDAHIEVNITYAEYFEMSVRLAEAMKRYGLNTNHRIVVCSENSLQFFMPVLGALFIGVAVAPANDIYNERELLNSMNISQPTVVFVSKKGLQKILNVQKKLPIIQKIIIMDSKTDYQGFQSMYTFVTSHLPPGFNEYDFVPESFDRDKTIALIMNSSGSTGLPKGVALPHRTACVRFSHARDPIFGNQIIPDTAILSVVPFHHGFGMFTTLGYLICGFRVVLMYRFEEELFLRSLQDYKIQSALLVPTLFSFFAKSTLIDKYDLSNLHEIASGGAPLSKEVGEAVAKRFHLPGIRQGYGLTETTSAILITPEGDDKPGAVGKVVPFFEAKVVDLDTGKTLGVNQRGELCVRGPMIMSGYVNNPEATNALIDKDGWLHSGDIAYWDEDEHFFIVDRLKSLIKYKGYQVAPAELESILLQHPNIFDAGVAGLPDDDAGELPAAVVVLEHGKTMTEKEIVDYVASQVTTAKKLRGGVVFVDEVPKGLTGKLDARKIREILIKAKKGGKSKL
Outline: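 Inhibition of purified Photinus luciferase is measured by luminescence. Substrate levels (D-luciferin, ATP) sit at their KM values. Each compound is tested in a concentration series.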

[12] = qHTS RealTime-Glo MT Cell Viability Assay in HEK293 cells - 32 hour (AID 1224868); further: potency means the concentration at half of the fitted maximal effect; nearly all actives have a fitted effect of over 50% in size
Outline: (§1)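 Tox21 10K qHTS, HEK293, 600 cells/well, RealTime-Glo reagent co-dispensed with cells; 5 h preincubation, compound by pintool, 37 C, luminescence at 0–40 h.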

[13] = qHTS RealTime-Glo MT Cell Viability Assay in HEK293 cells - 16 hour (AID 1224872); further: potency means the concentration at half of the fitted maximal effect; nearly all actives have a fitted effect of over 50% in size
Outline: as §1

[14] = qHTS RealTime-Glo MT Cell Viability Assay in HEK293 cells - 40 hour (AID 1224874); conditions: RealTime-Glo luminescence; max response: hits give low values; further: potency means the concentration at half of the fitted maximal effect; nearly all actives have a fitted effect of over 50% in size
Outline: (§2)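 600 HEK293 cells per well, dispensed already mixed with RealTime-Glo MT reagents. Compound dosing came 5 h later. The same wells were read for luminescence at 0, 8, 16, 24, 32 and 40 h of exposure at 37 C.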

[15] = qHTS RealTime-Glo MT Cell Viability Assay in HEK293 cells - 24 hour (AID 1224886); further: potency means the concentration at half of the fitted maximal effect; nearly all actives have a fitted effect of over 50% in size
Outline: as §1

[16] = qHTS RealTime-Glo MT Cell Viability Assay in HEK293 cells - 8 hour (AID 1224887)
Outline: as §2

[17] = target: Estrogen receptor (Homo sapiens) (UniProt P03372); assay: qHTS assay to identify small molecule antagonists of the estrogen receptor alpha (ER-alpha) signaling pathway using the BG1 cell line in the presence of 0.1 nM 17-beta-estradiol (AID 1259244)
Outline: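 Reporter is a stably transfected luciferase under four estrogen responsive elements in VM7Luc4E2 cells expressing native full-length ER-alpha; inhibition of 0.1 nM (final) 17beta-estradiol-driven signal over 22 h is read by luminescence.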

[18] = qHTS assay to identify small molecule agonists of the estrogen receptor beta (ER-beta) signaling pathway - cell viability counter screen (AID 1259380); further: potency means the concentration at half of the fitted maximal effect; nearly all actives have a fitted effect of over 30% in size
Outline: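 Steps: plate ER-beta-UAS-bla HEK293T cells, rest 6 hr; add compounds in DMSO; incubate 16 hr at 37C, 5% CO2; add FRET substrate 2 hr; add CellTiter-Glo, wait 30 min at room temperature; read luminescence.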

[19] = target: Progesterone receptor (Homo sapiens) (UniProt P06401); assay: qHTS assay to identify small molecule agonists of the progesterone receptor (PR) signaling pathway (AID 1346784; calls by dose curve; further: on the % scale 0 is the no-effect control and ±100 the full control effect; nearly all actives have a fitted effect of over 30% in size); conditions: PR-UAS-bla HEK293T, beta-lactamase FRET ratio, 16 h; activation: at 92.4 µM (top of the series) unless noted
UniProt P06401, sequence (P06401 whole entry, looked up): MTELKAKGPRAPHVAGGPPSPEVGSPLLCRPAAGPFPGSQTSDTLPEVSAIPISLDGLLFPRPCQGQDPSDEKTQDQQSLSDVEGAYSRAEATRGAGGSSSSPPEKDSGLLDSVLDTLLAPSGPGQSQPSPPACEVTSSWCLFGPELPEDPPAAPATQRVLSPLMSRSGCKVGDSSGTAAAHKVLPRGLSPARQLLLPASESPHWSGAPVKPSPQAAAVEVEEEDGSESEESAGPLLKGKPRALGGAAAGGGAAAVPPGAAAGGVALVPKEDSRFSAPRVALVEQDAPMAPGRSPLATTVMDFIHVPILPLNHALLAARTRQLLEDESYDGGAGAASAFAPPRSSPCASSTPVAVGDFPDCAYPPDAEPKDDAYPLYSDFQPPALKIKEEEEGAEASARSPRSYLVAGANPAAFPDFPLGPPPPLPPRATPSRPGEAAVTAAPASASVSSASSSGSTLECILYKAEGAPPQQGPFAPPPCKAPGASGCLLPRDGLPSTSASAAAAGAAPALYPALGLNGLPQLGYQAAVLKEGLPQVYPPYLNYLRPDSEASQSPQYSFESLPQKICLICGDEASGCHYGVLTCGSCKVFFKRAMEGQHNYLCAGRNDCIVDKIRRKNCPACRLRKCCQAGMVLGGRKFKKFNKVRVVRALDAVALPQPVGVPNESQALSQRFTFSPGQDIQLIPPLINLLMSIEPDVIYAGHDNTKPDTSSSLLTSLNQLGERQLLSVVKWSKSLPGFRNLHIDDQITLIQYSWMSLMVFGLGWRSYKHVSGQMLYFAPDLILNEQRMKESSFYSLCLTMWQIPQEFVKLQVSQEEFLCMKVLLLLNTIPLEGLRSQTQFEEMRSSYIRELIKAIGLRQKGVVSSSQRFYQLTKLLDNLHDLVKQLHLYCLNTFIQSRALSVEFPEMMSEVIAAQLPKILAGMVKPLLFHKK
Outline: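 Beta-lactamase reporter read-out: after 16 hr compound treatment at 37C and a further 2 hr at room temperature with LiveBLAzer B/G FRET substrate, fluorescence was measured in PR-UAS-bla HEK 293T cells grown in 2% charcoal-stripped serum.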

[20] = qHTS assay to identify small molecule antagonists of the progesterone receptor (PR) signaling pathway - cell viability counter screen (AID 1346798)
Outline: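 HEK293T PR-UAS-bla, 2% charcoal-stripped FBS; 4 hr pre-plate; cpd + R5020, 16 h 37C; LiveBLAzer read first; then CellTiter-Glo 30 min RT, luminescence.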

[21] = target: Nuclear receptor subfamily 1 group I member 2 (Homo sapiens) (UniProt O75469); assay: Human pregnane X receptor (PXR) small molecule agonists, qHTS assay (AID 1346982); further: on the % scale 0 is the no-effect control and ±100 the full control effect; nearly all actives have a fitted effect of over 35% in size
UniProt O75469, sequence (O75469 whole entry, looked up): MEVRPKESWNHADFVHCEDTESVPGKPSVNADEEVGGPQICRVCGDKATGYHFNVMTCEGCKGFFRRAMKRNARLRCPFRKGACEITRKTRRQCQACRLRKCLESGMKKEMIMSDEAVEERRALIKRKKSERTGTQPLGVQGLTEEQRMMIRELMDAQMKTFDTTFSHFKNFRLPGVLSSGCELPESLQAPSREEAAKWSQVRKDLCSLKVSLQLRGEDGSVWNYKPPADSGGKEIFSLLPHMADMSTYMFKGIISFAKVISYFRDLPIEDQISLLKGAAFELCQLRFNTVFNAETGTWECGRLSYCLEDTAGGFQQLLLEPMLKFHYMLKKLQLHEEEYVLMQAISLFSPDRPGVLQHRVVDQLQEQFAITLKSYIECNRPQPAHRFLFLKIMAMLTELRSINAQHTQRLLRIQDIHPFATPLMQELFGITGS
Outline: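 Reporter HepG2 cells expressing PXR-Luc are cultured in charcoal-stripped FBS (5%), treated with compounds for 24 hr at 37 C, and assayed by ONE-Glo luminescence after 30 min at room temperature.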

[22] = target: Cytochrome P450 1A2 (Homo sapiens) (UniProt P05177); assay: Cytochrome P450 Family 1 Subfamily A Member 2 (CYP1A2) small molecule antagonists: luciferase reporter qHTS assay (AID 1671199)
UniProt P05177, sequence (P05177 whole entry, looked up): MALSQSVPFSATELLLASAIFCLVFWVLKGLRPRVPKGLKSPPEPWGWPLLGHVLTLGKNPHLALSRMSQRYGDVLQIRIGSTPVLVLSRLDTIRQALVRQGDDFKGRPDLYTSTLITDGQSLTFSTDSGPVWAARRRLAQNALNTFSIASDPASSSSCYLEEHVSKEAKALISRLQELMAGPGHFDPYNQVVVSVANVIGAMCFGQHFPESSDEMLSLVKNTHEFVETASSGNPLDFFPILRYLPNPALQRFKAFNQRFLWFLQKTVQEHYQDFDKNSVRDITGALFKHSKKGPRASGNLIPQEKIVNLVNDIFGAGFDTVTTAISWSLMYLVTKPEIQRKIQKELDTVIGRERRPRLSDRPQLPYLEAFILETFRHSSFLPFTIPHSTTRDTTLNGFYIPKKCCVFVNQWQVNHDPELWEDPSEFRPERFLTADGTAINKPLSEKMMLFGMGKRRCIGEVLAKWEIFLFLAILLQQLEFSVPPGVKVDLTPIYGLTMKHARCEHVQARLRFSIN
Outline: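 Steps: enzyme-substrate mix dispensed; test compounds and furafylline control pinned in; 10 min room temperature; NADPH regeneration solution added, 1 h; reaction stopped with luciferin detection reagent; luminescence read after 20 min.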

[23] = qHTS assay to identify small molecule agonists of the estrogen related receptor signaling pathway with the pleiotropic PPARgamma coactivator (PGC) (AID 1224823); further: potency means the concentration at half of the fitted maximal effect
Outline: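 Luminescence from One-Glo reagent (30 min, room temperature) was read after 18 h compound treatment at 37 C of PGC/ERR cells plated 6 h beforehand; compounds delivered in DMSO by pin tool.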

[24] = qHTS assay to identify small molecule antagonists of the estrogen related receptor signaling pathway with the pleiotropic PPARgamma coactivator (PGC) cell viability counter screen (AID 1224822;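 further: potency means the concentration at half of the fitted maximal effect; viability read after 17.5 h compound exposure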)
Outline: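 Cytotoxicity in the PGC/ERR cell line is assessed with CellTiter-Fluor, read as fluorescence intensity 30 min after reagent addition, following 17.5 h compound treatment at 37 C.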
Tags describe the fitted curve by direction and shape.

CC(=O)Nc1cccc(C)c1
inconclusive: activation [1] 3.78% [at 95.1 µM] | Potency [4] 77.3 µM [cytotoxic, single point] | ratio activity, negative = inhibition [7] 7.99% [at 81.1 µM] | activation [9] -1.15% [at 81.1 µM] | Potency [10] 43.5 µM [cytotoxic, partial curve] | Potency [11] 80 µM [inhibitor, partial curve] | Potency [12] 43.8 µM [cytotoxic, partial curve] | Potency [13] 49.2 µM [cytotoxic, partial curve] | Potency [14] 39.1 µM [cytotoxic, partial curve] | Potency [15] 43.8 µM [cytotoxic, partial curve] | Potency [16] 55.2 µM [cytotoxic, partial curve, poor fit] | Potency [17] 77.3 µM [inhibitor, single point] | Potency [18] 68.9 µM [cytotoxic, single point] | Potency [22] 63.6 µM [inhibitor, partial curve]
inactive: Potency [2] | Potency [3] | Potency [5] | Potency [6] | Potency [8] | Potency [19] | Potency [20] | Potency [21]

O=c1cc(-c2ccccc2F)[nH]c2cc3c(cc12)OCO3
inconclusive: Potency [23] 16.8 µM [activator, partial curve, poor fit]

O[Si](CCCN1CCCCC1)(c1ccc(F)cc1)C1CCCCC1 (centres undefined)
inconclusive: Potency [24] 17.8 µM [cytotoxic]
